# Experimental data taken from the supplement of paper PMC8728848.
# The other results are listed elsewhere or left out.
# B1: EULS2 M2 (Oryza sativa) (protein)
# chain: MVYCRANPNYAMTARNGAVVLAPANPKDEYQHWIKDMRWSTSIKDEEGYPAFALVNKATGQAIKHSLGQSHPVRLVPYNPEVMDESVLWTESRDVGNGFRCIRMVNNIYLNFDAFHGDKYHGGVRDGTDIVLWKLCEGDSQRWKIQPYYILEQKLISEEDLNSAVDHHHHHH
# Experiments:
# Assay in all cases: glycan array binding signal (z-score within array); higher = stronger binding
# Details in all cases: glycan notation: IUPAC condensed, linker removed
# [1] = biological target: GlcNAc(b1-3)Gal(b1-4)Glc
# Outline: (§1)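 Arrays were curated from the Consortium for Functional Glycomics database, 3228 in total, and kept only where the protein sequence was available. Binding is expressed as a within-array Z-score. This score was averaged across arrays of the same protein sequence at different concentrations or buffers and across linkers, and negative values can be read as non-binding.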
# [2] = biological target: GlcNAc(b1-3)Gal(b1-4)GlcNAc
# Outline: as §1
# [3] = biological target: GlcNAc(b1-3)Gal(b1-4)GlcNAc(b1-2)Man(a1-3)[GlcNAc(b1-3)Gal(b1-4)GlcNAc(b1-2)Man(a1-6)]Man(b1-4)GlcNAc(b1-4)GlcNAc
# Outline: as §1
# [4] = biological target: GlcNAc(b1-3)Gal(b1-4)GlcNAc(b1-2)Man(a1-3)[GlcNAc(b1-3)Gal(b1-4)GlcNAc(b1-2)Man(a1-6)]Man(b1-4)GlcNAc(b1-4)[Fuc(a1-6)]GlcNAc
# Outline: as §1
# [5] = biological target: GlcNAc(b1-3)Gal(b1-4)GlcNAc(b1-2)[GlcNAc(b1-3)Gal(b1-4)GlcNAc(b1-6)]Man(a1-6)[GlcNAc(b1-3)Gal(b1-4)GlcNAc(b1-2)Man(a1-3)]Man(b1-4)GlcNAc(b1-4)GlcNAc
# Outline: as §1
# [6] = biological target: GlcNAc(b1-3)Gal(b1-4)GlcNAc(b1-3)Gal(b1-4)GlcNAc
# Outline: as §1
# [7] = biological target: GlcNAc(b1-3)Gal(b1-4)GlcNAc(b1-3)Gal(b1-4)GlcNAc(b1-2)Man(a1-3)[GlcNAc(b1-3)Gal(b1-4)GlcNAc(b1-3)Gal(b1-4)GlcNAc(b1-2)Man(a1-6)]Man(b1-4)GlcNAc(b1-4)GlcNAc
# Outline: as §1
# [8] = biological target: GlcNAc(b1-3)Gal(b1-4)GlcNAc(b1-3)Gal(b1-4)GlcNAc(b1-2)Man(a1-3)[GlcNAc(b1-3)Gal(b1-4)GlcNAc(b1-3)Gal(b1-4)GlcNAc(b1-2)Man(a1-6)]Man(b1-4)GlcNAc(b1-4)[Fuc(a1-6)]GlcNAc
# Outline: as §1
# [9] = biological target: GlcNAc(b1-3)Gal(b1-4)GlcNAc(b1-3)Gal(b1-4)GlcNAc(b1-2)[GlcNAc(b1-3)Gal(b1-4)GlcNAc(b1-3)Gal(b1-4)GlcNAc(b1-6)]Man(a1-6)[GlcNAc(b1-3)Gal(b1-4)GlcNAc(b1-3)Gal(b1-4)GlcNAc(b1-2)Man(a1-3)]Man(b1-4)GlcNAc(b1-4)[Fuc(a1-6)]GlcNAc
# Outline: as §1
# [10] = biological target: GlcNAc(b1-3)Gal(b1-4)GlcNAc(b1-3)Gal(b1-4)GlcNAc(b1-3)Gal(b1-4)GlcNAc(b1-2)Man(a1-3)[GlcNAc(b1-3)Gal(b1-4)GlcNAc(b1-3)Gal(b1-4)GlcNAc(b1-3)Gal(b1-4)GlcNAc(b1-2)Man(a1-6)]Man(b1-4)GlcNAc(b1-4)GlcNAc
# Outline: as §1
# [11] = biological target: GlcNAc(b1-3)Gal(b1-4)GlcNAc(b1-3)Gal(b1-4)GlcNAc(b1-3)Gal(b1-4)GlcNAc(b1-2)Man(a1-3)[GlcNAc(b1-3)Gal(b1-4)GlcNAc(b1-3)Gal(b1-4)GlcNAc(b1-3)Gal(b1-4)GlcNAc(b1-2)Man(a1-6)]Man(b1-4)GlcNAc(b1-4)[Fuc(a1-6)]GlcNAc
# Outline: as §1
# [12] = biological target: GlcNAc(b1-3)Gal(b1-4)GlcNAc(b1-3)Gal(b1-4)GlcNAc(b1-3)Gal(b1-4)GlcNAc(b1-2)[GlcNAc(b1-3)Gal(b1-4)GlcNAc(b1-3)Gal(b1-4)GlcNAc(b1-3)Gal(b1-4)GlcNAc(b1-6)]Man(a1-6)[GlcNAc(b1-3)Gal(b1-4)GlcNAc(b1-3)Gal(b1-4)GlcNAc(b1-3)Gal(b1-4)GlcNAc(b1-2)Man(a1-3)]Man(b1-4)GlcNAc(b1-4)[Fuc(a1-6)]GlcNAc
# Outline: as §1
# [13] = biological target: GlcNAc(b1-3)Gal(b1-4)GlcNAc(b1-3)Gal(b1-4)GlcNAc(b1-3)Gal(b1-4)GlcNAc(b1-3)Gal(b1-4)GlcNAc(b1-2)Man(a1-3)[GlcNAc(b1-3)Gal(b1-4)GlcNAc(b1-3)Gal(b1-4)GlcNAc(b1-3)Gal(b1-4)GlcNAc(b1-3)Gal(b1-4)GlcNAc(b1-2)Man(a1-6)]Man(b1-4)GlcNAc(b1-4)GlcNAc
# Outline: as §1
# [14] = biological target: GlcNAc(b1-3)Gal(b1-4)GlcNAc(b1-3)Gal(b1-4)GlcNAc(b1-3)Gal(b1-4)GlcNAc(b1-3)Gal(b1-4)GlcNAc(b1-2)Man(a1-3)[GlcNAc(b1-3)Gal(b1-4)GlcNAc(b1-3)Gal(b1-4)GlcNAc(b1-3)Gal(b1-4)GlcNAc(b1-3)Gal(b1-4)GlcNAc(b1-2)Man(a1-6)]Man(b1-4)GlcNAc(b1-4)[Fuc(a1-6)]GlcNAc
# Outline: as §1
# [15] = biological target: GlcNAc(b1-3)Gal(b1-4)GlcNAc(b1-3)Gal(b1-4)GlcNAc(b1-3)Gal(b1-4)GlcNAc(b1-3)Gal(b1-4)GlcNAc(b1-2)[GlcNAc(b1-3)Gal(b1-4)GlcNAc(b1-3)Gal(b1-4)GlcNAc(b1-3)Gal(b1-4)GlcNAc(b1-3)Gal(b1-4)GlcNAc(b1-6)]Man(a1-6)[GlcNAc(b1-3)Gal(b1-4)GlcNAc(b1-3)Gal(b1-4)GlcNAc(b1-3)Gal(b1-4)GlcNAc(b1-3)Gal(b1-4)GlcNAc(b1-2)Man(a1-3)]Man(b1-4)GlcNAc(b1-4)[Fuc(a1-6)]GlcNAc
# Outline: as §1
# [16] = biological target: GlcNAc(b1-3)Gal(b1-4)GlcNAc(b1-3)Gal(b1-4)GlcNAc(b1-3)GalNAc
# Outline: as §1
# [17] = biological target: GlcNAc(b1-3)Gal(b1-4)GlcNAc(b1-3)GalNAc
# Outline: as §1
# [18] = biological target: GlcNAc(b1-3)Gal(b1-4)GlcNAc(b1-3)[GlcNAc(b1-3)Gal(b1-4)GlcNAc(b1-3)]GalNAc
# Outline: as §1
# [19] = biological target: GlcNAc(b1-3)Gal(b1-4)GlcNAc(b1-6)[Gal(b1-3)]GalNAc
# Outline: as §1
# [20] = biological target: GlcNAc(b1-3)Gal(b1-4)GlcNAc(b1-6)[GlcNAc(b1-3)Gal(b1-3)]GalNAc
# Outline: as §1
# [21] = biological target: GlcNAc(b1-3)Gal(b1-4)GlcNAc(b1-6)[GlcNAc(b1-3)]Gal(b1-4)GlcNAc
# Outline: as §1
# [22] = biological target: GlcNAc(b1-3)GalNAc
# Outline: as §1
# [23] = biological target: GlcNAc(b1-3)Man
# Outline: as §1
# [24] = biological target: GlcNAc(b1-3)[GlcNAc(b1-4)][GlcNAc(b1-6)]GlcNAc
# Outline: as §1
# [25] = biological target: GlcNAc(b1-3)[GlcNAc(b1-6)]Gal(b1-4)GlcNAc
# Outline: as §1
# [26] = biological target: GlcNAc(b1-3)[GlcNAc(b1-6)]GalNAc
# Outline: as §1
# [27] = biological target: GlcNAc(b1-4)Gal(b1-4)GlcNAc
# Outline: as §1
# [28] = biological target: GlcNAc(b1-4)GlcNAc
# Outline: as §1
# [29] = biological target: GlcNAc(b1-4)GlcNAc(b1-4)GlcNAc
# Outline: as §1
# [30] = biological target: GlcNAc(b1-4)GlcNAc(b1-4)GlcNAc(b1-4)GlcNAc(b1-4)GlcNAc
# Outline: as §1
# [31] = biological target: GlcNAc(b1-4)GlcNAc(b1-4)GlcNAc(b1-4)GlcNAc(b1-4)GlcNAc(b1-4)GlcNAc
# Outline: as §1
# [32] = biological target: GlcNAc(b1-4)[GlcNAc(b1-6)]GalNAc
# Outline: as §1
# [33] = biological target: GlcNAc(b1-6)Gal(b1-4)GlcNAc
# Outline: as §1
# [34] = biological target: GlcNAc(b1-6)GalNAc
# Outline: as §1
# [35] = biological target: GlcNAc6S(b1-3)Gal(b1-4)GlcNAc
# Outline: as §1
# [36] = biological target: Kdn(a2-3)Gal(b1-3)GalNAc
# Outline: as §1
# [37] = biological target: Kdn(a2-3)Gal(b1-3)GlcNAc
# Outline: as §1
# [38] = biological target: Kdn(a2-3)Gal(b1-4)Glc
# Outline: as §1
# [39] = biological target: Kdn(a2-3)Gal(b1-4)GlcNAc
# Outline: as §1
# [40] = biological target: Kdn(a2-3)Gal(b1-4)[Fuc(a1-3)]GlcNAc
# Outline: as §1
# [41] = biological target: Kdn(a2-6)Gal(b1-4)GlcNAc
# Outline: as §1
# [42] = biological target: Man(a1-2)Man(a1-2)Man(a1-3)Man
# Outline: as §1
# [43] = biological target: Man(a1-2)Man(a1-2)Man(a1-6)[Man(a1-3)]Man
# Outline: as §1
# [44] = biological target: Man(a1-2)Man(a1-3)Man
# Outline: as §1
# [45] = biological target: Man(a1-2)Man(a1-3)[Man(a1-2)Man(a1-6)]Man
# Outline: as §1
binder,measurement,setting,value
B1,glycan array binding signal (z-score),[1],-0.357
same,glycan array binding signal (z-score),[2],-0.346
same,glycan array binding signal (z-score),[3],-0.176
same,glycan array binding signal (z-score),[4],0.837
same,glycan array binding signal (z-score),[5],1.16
same,glycan array binding signal (z-score),[6],-0.053
same,glycan array binding signal (z-score),[7],0.163
same,glycan array binding signal (z-score),[8],-0.087
same,glycan array binding signal (z-score),[9],0.378
same,glycan array binding signal (z-score),[10],0.026
same,glycan array binding signal (z-score),[11],0.36
same,glycan array binding signal (z-score),[12],-0.203
same,glycan array binding signal (z-score),[13],-0.068
same,glycan array binding signal (z-score),[14],-0.087
same,glycan array binding signal (z-score),[15],-0.082
same,glycan array binding signal (z-score),[16],-0.556
same,glycan array binding signal (z-score),[17],0.044
same,glycan array binding signal (z-score),[18],-0.48
same,glycan array binding signal (z-score),[19],-0.263
same,glycan array binding signal (z-score),[20],-0.189
same,glycan array binding signal (z-score),[21],-0.388
same,glycan array binding signal (z-score),[22],0.313
same,glycan array binding signal (z-score),[23],-0.054
same,glycan array binding signal (z-score),[24],0.48
same,glycan array binding signal (z-score),[25],-0.393
same,glycan array binding signal (z-score),[26],-0.461
same,glycan array binding signal (z-score),[27],-0.154
same,glycan array binding signal (z-score),[28],-0.28
same,glycan array binding signal (z-score),[29],-0.527
same,glycan array binding signal (z-score),[30],-0.238
same,glycan array binding signal (z-score),[31],-0.562
same,glycan array binding signal (z-score),[32],0.132
same,glycan array binding signal (z-score),[33],-0.639
same,glycan array binding signal (z-score),[34],-0.318
same,glycan array binding signal (z-score),[35],0.717
same,glycan array binding signal (z-score),[36],0.365
same,glycan array binding signal (z-score),[37],-0.436
same,glycan array binding signal (z-score),[38],-0.15
same,glycan array binding signal (z-score),[39],-0.327
same,glycan array binding signal (z-score),[40],-0.202
same,glycan array binding signal (z-score),[41],-0.642
same,glycan array binding signal (z-score),[42],-0.332
same,glycan array binding signal (z-score),[43],-0.552
same,glycan array binding signal (z-score),[44],0.198
same,glycan array binding signal (z-score),[45],-0.526
